# Assay results published in the supplement of paper PMC8728848.
# The other results are listed elsewhere or left out.
# Assays:
# Experiment in all cases: glycan array binding signal (z-score within array); higher = stronger binding
# Details in all cases: glycan notation: IUPAC condensed, linker removed
# [1] = molecular target: Gal(b1-4)GlcNAc(b1-6)GalNAc
# Outline: (§1)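 From the Consortium for Functional Glycomics database, 3228 arrays were curated, keeping only those whose protein sequence was available. Binding is given as a within-array Z-score averaged across arrays sharing a protein sequence and across linkers. Negative Z-scores can be read as non-binding.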
# [2] = molecular target: Gal(b1-4)GlcNAc(b1-6)[Gal(b1-3)]GalNAc
# Outline: as §1
# [3] = molecular target: Gal(b1-4)GlcNAc(b1-6)[Gal(b1-4)GlcNAc(b1-3)]GalNAc
# Outline: as §1
# Gal(b1-4)GlcNAc6P = molecular target: Gal(b1-4)GlcNAc6P
# Outline: as §1
# Gal(b1-6)Gal = molecular target: Gal(b1-6)Gal
# Outline: as §1
# Gal3S(b1-3)GalNAc = molecular target: Gal3S(b1-3)GalNAc
# Outline: as §1
# Gal3S(b1-3)GlcNAc = molecular target: Gal3S(b1-3)GlcNAc
# Outline: as §1
# [4] = molecular target: Gal3S(b1-3)[Fuc(a1-4)]GlcNAc
# Outline: as §1
# Gal3S(b1-4)Glc = molecular target: Gal3S(b1-4)Glc
# Outline: as §1
# Gal3S(b1-4)Glc6S = molecular target: Gal3S(b1-4)Glc6S
# Outline: as §1
# Gal3S(b1-4)GlcNAc = molecular target: Gal3S(b1-4)GlcNAc
# Outline: as §1
# [5] = molecular target: Gal3S(b1-4)[Fuc(a1-3)]Glc6S
# Outline: as §1
# [6] = molecular target: Gal3S(b1-4)[Fuc(a1-3)]GlcNAc
# Outline: as §1
# [7] = molecular target: Gal3S(b1-4)[Fuc(a1-3)]GlcNAc6S
# Outline: as §1
# Gal3S4S(b1-4)GlcNAc = molecular target: Gal3S4S(b1-4)GlcNAc
# Outline: as §1
# Gal3S6S(b1-4)GlcNAc = molecular target: Gal3S6S(b1-4)GlcNAc
# Outline: as §1
# Gal3S6S(b1-4)GlcNAc6S = molecular target: Gal3S6S(b1-4)GlcNAc6S
# Outline: as §1
# Gal4S(b1-4)GlcNAc = molecular target: Gal4S(b1-4)GlcNAc
# Outline: as §1
# Gal4S6S(b1-4)GlcNAc = molecular target: Gal4S6S(b1-4)GlcNAc
# Outline: as §1
# Gal6P(b1-4)GlcNAc = molecular target: Gal6P(b1-4)GlcNAc
# Outline: as §1
# Gal6S(b1-3)GlcNAc = molecular target: Gal6S(b1-3)GlcNAc
# Outline: as §1
# Gal6S(b1-3)GlcNAc6S = molecular target: Gal6S(b1-3)GlcNAc6S
# Outline: as §1
# Gal6S(b1-4)Glc = molecular target: Gal6S(b1-4)Glc
# Outline: as §1
# Gal6S(b1-4)Glc6S = molecular target: Gal6S(b1-4)Glc6S
# Outline: as §1
# Gal6S(b1-4)GlcNAc = molecular target: Gal6S(b1-4)GlcNAc
# Outline: as §1
# Gal6S(b1-4)GlcNAc6S = molecular target: Gal6S(b1-4)GlcNAc6S
# Outline: as §1
# GalNAc(a1-3)Gal = molecular target: GalNAc(a1-3)Gal
# Outline: as §1
# GalNAc(a1-3)GalNAc = molecular target: GalNAc(a1-3)GalNAc
# Outline: as §1
# [8] = molecular target: GalNAc(a1-3)GalNAc(b1-3)Gal(a1-4)Gal(b1-4)Glc
# Outline: as §1
# [9] = molecular target: GalNAc(a1-3)GalNAc(b1-3)Gal(a1-4)Gal(b1-4)GlcNAc
# Outline: as §1
# GalNAc(b1-3)Gal = molecular target: GalNAc(b1-3)Gal
# Outline: as §1
# [10] = molecular target: GalNAc(b1-3)Gal(a1-4)Gal(b1-4)GlcNAc
# Outline: as §1
# [11] = molecular target: GalNAc(b1-3)Gal(a1-4)Gal(b1-4)GlcNAc(b1-3)Gal(b1-4)Glc
# Outline: as §1
# [12] = molecular target: GalNAc(b1-3)Gal(a1-6)Gal(b1-4)Glc
# Outline: as §1
# GalNAc(b1-3)GalNAc = molecular target: GalNAc(b1-3)GalNAc
# Outline: as §1
# GalNAc(b1-3)GlcNAc = molecular target: GalNAc(b1-3)GlcNAc
# Outline: as §1
# GalNAc(b1-4)Gal(b1-4)Glc = molecular target: GalNAc(b1-4)Gal(b1-4)Glc
# Outline: as §1
# GalNAc(b1-4)GlcNAc = molecular target: GalNAc(b1-4)GlcNAc
# Outline: as §1
binder,measurement,setting,value
PX9961V-pdi-562-26-562 (Parabacteroides distasonis) (protein) EIFSEITTDNYYQNSNNIYAALVNNYAKAFSTGWSDARYFLQEVTADQLMIPTRGKHGYNGGEYVRLHEHKWTVEENFVYNGWAAPFQGIALCNNTLSDFENLDFSTFKLTEETKNEYIAELRALRVWNYMFLIDFFRHVPIVTDIEEVKAQSTPLEVFNFMESELLAILPDLPKNRGVSRFDQAGVASILVRLYLNAEKWIGISKYDECEQMAQAILDGKYGEYSIDPDYRGPFRSGINGYRSKENIMEFAIKKNYFEASWLYNMWMHYQDRYSLDNDWQGWNGGNLAPSRDLYGNLYQDKLGMPFEKFPDGDIRKKAFRVISNDGDYEGFFLMGTQYKFDYEKGYGFTDEVITGTEEYNGKPLVYVDQVGRFSEGETGLAKGSHVIYGEENTGYRLIKFPWLPQSKDLFQMNSIPEIRLAEIYYSLAECKYRSGDKIGAARLLDVVRKRYYKAEDWSKFSYESNISKLTDDEFVDELGREFIGERHRRIDLIRWNRFSEGAWWDKTPDATNQDVFPIPYRALNANPLLKQTTAGF,glycan array binding signal (z-score),[1],-0.247
same,glycan array binding signal (z-score),[2],0.458
same,glycan array binding signal (z-score),[3],-0.135
same,glycan array binding signal (z-score),Gal(b1-4)GlcNAc6P,-0.526
same,glycan array binding signal (z-score),Gal(b1-6)Gal,0.78
same,glycan array binding signal (z-score),Gal3S(b1-3)GalNAc,-0.29
same,glycan array binding signal (z-score),Gal3S(b1-3)GlcNAc,-0.799
same,glycan array binding signal (z-score),[4],-0.552
same,glycan array binding signal (z-score),Gal3S(b1-4)Glc,-0.152
same,glycan array binding signal (z-score),Gal3S(b1-4)Glc6S,-0.546
same,glycan array binding signal (z-score),Gal3S(b1-4)GlcNAc,-0.447
same,glycan array binding signal (z-score),[5],1.67
same,glycan array binding signal (z-score),[6],-0.385
same,glycan array binding signal (z-score),[7],-0.111
same,glycan array binding signal (z-score),Gal3S4S(b1-4)GlcNAc,0.293
same,glycan array binding signal (z-score),Gal3S6S(b1-4)GlcNAc,-0.101
same,glycan array binding signal (z-score),Gal3S6S(b1-4)GlcNAc6S,-0.287
same,glycan array binding signal (z-score),Gal4S(b1-4)GlcNAc,-0.475
same,glycan array binding signal (z-score),Gal4S6S(b1-4)GlcNAc,-0.125
same,glycan array binding signal (z-score),Gal6P(b1-4)GlcNAc,-0.734
same,glycan array binding signal (z-score),Gal6S(b1-3)GlcNAc,0.186
same,glycan array binding signal (z-score),Gal6S(b1-3)GlcNAc6S,-0.707
same,glycan array binding signal (z-score),Gal6S(b1-4)Glc,-0.17
same,glycan array binding signal (z-score),Gal6S(b1-4)Glc6S,-0.292
same,glycan array binding signal (z-score),Gal6S(b1-4)GlcNAc,-0.043
same,glycan array binding signal (z-score),Gal6S(b1-4)GlcNAc6S,0.123
same,glycan array binding signal (z-score),GalNAc(a1-3)Gal,-0.475
same,glycan array binding signal (z-score),GalNAc(a1-3)GalNAc,-0.16
same,glycan array binding signal (z-score),[8],-0.432
same,glycan array binding signal (z-score),[9],-0.239
same,glycan array binding signal (z-score),GalNAc(b1-3)Gal,-0.142
same,glycan array binding signal (z-score),[10],-0.339
same,glycan array binding signal (z-score),[11],0.281
same,glycan array binding signal (z-score),[12],-0.107
same,glycan array binding signal (z-score),GalNAc(b1-3)GalNAc,-0.22
same,glycan array binding signal (z-score),GalNAc(b1-3)GlcNAc,0.501
same,glycan array binding signal (z-score),GalNAc(b1-4)Gal(b1-4)Glc,-0.152
same,glycan array binding signal (z-score),GalNAc(b1-4)GlcNAc,-0.213
